{
  "source": "patent US8992915B2",
  "about": "“Combination of CD37 antibodies with ICE” (Boehringer Ingelheim International GmbH, priority 2012, dated 2015)",
  "molecules": {"B1": {"name": "A2: chimeric CD37 antibody comprising heavy chain SEQ ID NO: 5 and light chain SEQ ID NO: 6 (antibody)", "heavy": "AVQLQQSGPELEKPGASVKISCKASGYSFTGYNMNWVKQNNGKSLEWIGNIDPYYGGTTYNRKFKGKATLTVDKSSSTAYMQLKSLTSEDSAVYYCARSVGPMDYWGQGTSVTVSSASTKGPSVFPLAPSSKSTSGGTAALGCLVKDYFPEPVTVSWNSGALTSGVHTFPAVLQSSGLYSLSSVVTVPSSSLGTQTYICNVNHKPSNTKVDKRV[human IgG1 Fc with changes not shown]", "light": "DIQMTQSPASLSASVGETVTITCRTSENVYSYLAWYQQKQGKSPQLLVSFAKTLAEGVPSRFSGSGSGTQFSLKISSLQPEDSGSYFCQHHSDNPWTFGGGTELEIKRTVAAPSVFIFPPSDEQLKSGTASVVCLLNNFYPREAKVQWKVDNALQSGNSQESVTEQDSKDSTYSLSSTLTLSKADYEKHKVYACEVTHQGLSSPVTKSFNRGEC"}},
  "tested_on": "human Burkitt lymphoma Ramos xenografts",
  "assay": "Anti-tumor effect in subcutaneous Ramos xenograft tumor model in mice",
  "type": "in vivo",
  "settings": "Ramos tumor-bearing mice",
  "method": "Mice are 11 week-old female Crl:SHO-PrkdcscidHrhr purchased from Charles River. After arrival, mice are allowed to adjust to ambient conditions for at least 5 days before they are used for the experiments. They are housed in Makrolon type III cages in groups of 7 (8 for the controls) under standardized conditions at 21.5+/−1.5° C. temperature and 55+/−10% humidity. Standardized diet (PROVIMI KLIBA) and autoclaved tap water were provided ad libitum. Subcutaneously implanted (under isoflurane anesthesia) microchips are used to identify each mouse. […]\nTumor diameters are measured three times a week (Monday, Wednesday and Friday) with a caliper. The volume of each tumor [in mm^3] is calculated according to the formula “tumor volume=length*diameter^2*π/6.” To monitor side effects of treatment, mice are inspected daily for abnormalities and body weight is determined three times a week (Monday, Wednesday and Friday) Animals are sacrificed when the control tumors reached a size of approximately 1000 mm^3 on average. […]\nTGI (tumor growth inhibition) values are calculated as follows: TGI=100×{1−[(treatedfinal day−treated/(controlfinal day−controlday 1)]}\nThe statistical evaluation is performed for the parameters tumor volume and body weight at day 15. […] For descriptive considerations the number of observations, the median, the minimum and the maximum are calculated. […]",
  "data": [
    {"molecule": "B1", "values": [
      {"measurement": "median TGI (tumor growth inhibition)", "setting": "day 15, two cycles, A2 1 mg/kg twice weekly i.v., ICE (ifosfamide 83.3, carboplatin 7.8, etoposide 0.5 mg/kg) three times weekly i.p.", "value": 70, "unit": "%"},
      {"measurement": "time until the group median tumor volume exceeded 500 mm^3", "setting": "third cycle after day 15, day 24 last day of study, same dosing as TGI", "value": 16, "unit": "days"}
    ]}
  ]
}
